Among all 220,000 compounds or so, about 16,000 (7.3%) were called active. The inconclusive results got no clear call from the source; some entries with a clear call stand among them for comparison. Calls come from the whole dose curve; as a rule, active = well fitted inhibition curve with a large enough effect (not every such curve was filed as active); inconclusive = small, poorly fitted or top-dose-only effect, or another doubt; inactive = no such curve, though single readings can be large or run the other way. Potencies of inconclusive entries are left out as doubtful fits.
These molecules were tested against Aldehyde dehydrogenase 1A1 (Homo sapiens) (UniProt P00352) (assay: qHTS Assay for Inhibitors of Aldehyde Dehydrogenase 1 (ALDH1A1)). Details: Purified ALDH1A1, NADH fluorescence, propionaldehyde substrate; series mostly up to 75.3 µM.
Sequence of UniProt P00352 (P00352 whole entry, looked up): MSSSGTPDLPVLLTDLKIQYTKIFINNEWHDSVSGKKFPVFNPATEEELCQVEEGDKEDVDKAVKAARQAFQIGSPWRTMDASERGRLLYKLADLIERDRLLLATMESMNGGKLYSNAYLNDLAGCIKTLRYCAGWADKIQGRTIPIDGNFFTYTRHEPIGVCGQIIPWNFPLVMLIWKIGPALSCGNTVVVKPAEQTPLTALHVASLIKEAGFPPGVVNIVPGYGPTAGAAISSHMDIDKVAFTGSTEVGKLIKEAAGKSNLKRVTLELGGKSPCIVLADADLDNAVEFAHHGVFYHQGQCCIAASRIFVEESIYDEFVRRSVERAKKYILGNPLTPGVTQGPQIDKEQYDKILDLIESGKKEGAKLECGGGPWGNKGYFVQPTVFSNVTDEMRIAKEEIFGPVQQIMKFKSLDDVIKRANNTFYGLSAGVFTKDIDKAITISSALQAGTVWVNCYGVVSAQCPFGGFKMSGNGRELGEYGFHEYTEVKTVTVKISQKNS
Potency is the fitted concentration of half-maximal effect; tags give direction and shape of the fitted curve.
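Throughout, for activity, negative = inhibition: plate controls were no enzyme wells and a reference inhibitor.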

| SMILES | Potency | activity, negative = inhibition |
| --- | --- | --- |
| CCOC(=O)N1CCC(NC(=O)CCC(=O)N2CC(C)Oc3ccc(Cl)cc32)CC1 (stereo not given) | inconclusive [inhibitor, single point] | – |
| CN(Cc1ccccc1)Cn1ccnc1 | – | inactive: -6.26% [at 13.5 µM] |
| COc1ccccc1CNC(=O)CN(CCc1ccccc1)S(C)(=O)=O | inactive | – |
| COc1ccc(-c2cc3ncc(-c4ccccc4)c(N)n3n2)cc1 | inconclusive [inhibitor, partial curve] | – |
| CC(C)=CCC/C(C)=C/CC/C(C)=C/CSCC(=O)O | inactive | – |
| Cc1ccc(S(=O)(=O)N(C)C)cc1NC(=S)NC(C)CCCC(C)C (stereo not given) | inconclusive [inhibitor, single point] | – |
| O=C(N/N=C/c1sc(N2CCCCC2)nc1-c1cccs1)c1cccnc1 | active: 31.6 µM | – |
| COc1ccc(B(O)O)cc1 | inactive | – |
| CC(C)Sc1nc2sc3c(c2c2nnc(SCC(=O)NCc4ccco4)n12)CCCC3 | inactive | – |
| CCN1CCN(C(=O)N2CCOCC2)CC1 | inactive | – |
| COc1ccc([N+](=O)[O-])cc1NC(=O)CN(C)S(=O)(=O)c1ccccc1 | inactive | – |
| C=CCn1c(SCC(=O)NC23CC4CC(CC(C4)C2)C3)nc2cc(C(=O)O)ccc2c1=O | active: 12.6 µM | – |
| Cc1nonc1C(=O)N/N=C/c1ccccc1 | inactive | – |
| O=C(Oc1ccccc1)c1cccc2cccc(C(=O)Oc3ccccc3)c12 | inactive | – |
| CC1CCC2(CC1)NC(=O)N(CC(=O)Nc1nc(-c3ccc(F)cc3)cs1)C2=O (stereo not given) | inconclusive [inhibitor, single point] | – |
| COc1ccccc1N1CCN(S(=O)(=O)c2ccc3nc(-c4ccccc4)[nH]c3c2)CC1 | inactive | – |
| CCOc1ccc(-c2nc(CSCC(=O)NCc3ccco3)c(C)o2)cc1 | inconclusive [inhibitor, single point] | – |
| Cc1c(-c2ccccc2)nc2ccccc2c1C(=O)NCc1cccs1 | active: 14.1 µM | – |
| CCc1ccc(-n2cccc2/C=C2/C(=N)N3C(=NC2=O)SN=C3S(C)(=O)=O)cc1 | inconclusive [inhibitor, partial curve] | – |
| COc1ccc(CCNC2=NCC(C)S2)cc1 (stereo not given) | inactive | – |
| CN(C)C(=O)Nc1ccc(Cl)c(Cl)c1 | inactive | – |
| CCn1ncc(/C=C/C(=O)c2ccccc2)c1C | inactive | – |
| CCCCNc1c([N+](=O)[O-])c(=O)n(C)c2ccccc12 | inactive | – |
| Cc1ccc(CS(=O)(=O)CCC(=O)NCCCN2CCCC2=O)cc1 | inactive | – |
| CCN1C(=O)c2cccc3c(Cl)ccc(c23)C1=O | inconclusive [inhibitor, single point] | – |
| CC(=O)Nc1ccc(NS(=O)(=O)c2ccc(-c3csc(C)n3)s2)cc1 | inactive | – |
| Cc1ccc(-c2nnc3sc(CCc4ccccc4)nn23)cc1 | active: 3.55 µM | – |

| SMILES | Potency | activity, negative = inhibition |
| --- | --- | --- |
| O=C(COC(=O)CC1CC2CCC1C2)NC(=O)NC1CCCC1 (stereo not given) | inactive | – |
| COc1ccccc1CNC(=O)c1cccc(-c2ccccc2OC)n1 | active: 31.6 µM | – |
| COc1ccc2nc(C)cc(SCC(=O)N/N=C/c3ccccc3)c2c1 | inactive | – |
| CCOC(=O)c1c(C)n(O)c2ccc(Cl)cc2c1=O | inconclusive [inhibitor, partial curve] | – |
| C=CCN(CC=C)C(=S)NC(=O)/C=C/c1ccccc1 | inconclusive [inhibitor, partial curve] | – |
| CC(C)CC(=O)N1CCN(CC2CC=CCC2)CC1 (stereo not given) | inconclusive [inhibitor, single point] | – |
| CC(C)C(c1nnnn1Cc1ccccc1)N(CCCO)Cc1cc2cc3c(cc2[nH]c1=O)OCO3 (stereo not given) | inconclusive [inhibitor, partial curve] | – |
| CCCOc1ccc(C(=O)Nc2nc(C)c(Cc3ccc4c(c3)OCO4)s2)cc1 | inconclusive [inhibitor, single point] | – |
| OC1(c2cccc(C(F)(F)F)c2)CCN(c2ncnc3c2[nH]c2ccccc23)CC1 | inconclusive [inhibitor, single point] | – |
| CCOC(=O)c1cc(C#N)c(SCC(=O)c2cc(C#N)c(SC)nc2C)[nH]c1=O | active: 1.26 µM | – |
| CS(=O)(=O)Nc1ccc(C(=O)NCCSCc2c(F)cccc2Cl)cc1 | inconclusive [inhibitor, partial curve] | – |
| CCN(C(=O)COC(=O)c1ccc2c(=O)n3c(nc2c1)CCC3)C1CCS(=O)(=O)C1 (stereo not given) | inconclusive [inhibitor, single point] | – |
| S=c1[nH]nc(-c2ccccn2)n1/N=C/c1cccc(Cl)c1 | inconclusive [inhibitor, single point] | – |
| CCN1CCc2c(C#N)c(N3CCOCC3)nc(NCCO)c2C1 | inconclusive [inhibitor, single point] | – |
| CC1(C)CC(=O)C2=C(C1)c1c(ccc3ccccc13)NC2c1ccc(Br)o1 (stereo not given) | inconclusive [inhibitor, single point] | – |
| CCC(=O)Oc1ccc2ccccc2c1CNC(=O)c1ccccc1 | inconclusive [inhibitor, single point] | – |
| COc1ccccc1-n1c(-c2ccc(Cl)cc2)c[nH]c1=S | inconclusive [inhibitor, full curve, poor fit] | – |
| O=C(c1nc(-c2ccccc2)n(-c2ccccc2)n1)N1CCCCCC1 | active: 8.91 µM | – |
| O=S(=O)(NCCC1=CCCCC1)c1cccc2nsnc12 | inconclusive [inhibitor, partial curve] | – |
| CCCCNS(=O)(=O)c1ccc(S(=O)(=O)N2CCC3(CC2)OCCO3)cc1 | inconclusive [inhibitor, full curve] | – |
| Cc1ccc2c(CC(=O)NCc3ccco3)coc2c1C | active: 25.1 µM | – |
| CCCCCCCCCn1c2c(c(=N)c3c1CCC3)CCC2 | inactive | – |
| COc1cccc(C(=O)Nc2cccc(-c3nc4ncccc4o3)c2C)c1 | inconclusive [inhibitor, single point] | – |
| CCN(CC)S(=O)(=O)c1ccc(NS(=O)(=O)c2ccc(C)c(C)c2)cc1 | inconclusive [inhibitor, partial curve] | – |
| O=C(c1cccnc1)N1CCN(c2ccc([N+](=O)[O-])cc2Cl)CC1 | inconclusive [inhibitor, single point] | – |
| CC(C)c1ccc(OCC(=O)NC2=NCCS2)cc1 | inconclusive [inhibitor, single point] | – |
| COc1ccc(NC(=O)OC(C)C)cc1 | inactive | – |

| SMILES | Potency | activity, negative = inhibition |
| --- | --- | --- |
| O=C(NC(=S)NCc1cccnc1)c1cc2ccccc2o1 | inconclusive [inhibitor, single point] | – |
| CC(C)(C)C(=O)Nc1cc(C(F)(F)F)ccc1N1CCOCC1 | inactive | – |
| Cc1ccc(S(=O)(=O)N(C)C)cc1NC(=O)COC(=O)c1ccc2c(c1)NC(=O)CS2 | inconclusive [inhibitor, single point] | – |
| O=C(c1ccccc1)c1cnc(Nc2ccccc2Cl)s1 | inconclusive [inhibitor, single point] | – |
| CCN(CC)c1ccc(/C=C/C(=O)c2ccc(Br)cc2)cc1 | inconclusive [inhibitor, single point] | – |
| O=C(CSc1nnc(-c2ccccc2Cl)o1)Nc1ccc2c(c1)OCCO2 | active: 20 µM | – |
| COc1ccc(C2CC(=O)C(CS(=O)(=O)c3ccccc3)C(=O)C2)cc1 (stereo not given) | active: 7.94 µM | – |
| COC(=O)c1ccc(CSc2nc3ccc(C)cc3[nH]2)o1 | inactive | – |
| O=C1CCCC=C1[C@@H](O)COCc1ccccc1 | – | inactive: -7.49% [at 13.5 µM] |
| CC(C)Cn1c(-c2cc([N+](=O)[O-])ccc2Cl)nc2c1c(=O)[nH]c(=O)n2Cc1ccccc1 | inconclusive [inhibitor, single point] | – |
| O=C(N1CCCCC1)N1CCN(C(=O)N(c2ccccc2)c2ccccc2)CC1 | active: 11.2 µM | – |
| O=S(=O)(NCC(Nc1ccc(Cl)cc1)c1ccccc1)c1ccccc1 (stereo not given) | inactive | – |
| COc1cc(NC(=O)Nc2ccccc2)c(OC)cc1NC(=O)CN1CCCCC1 | inactive | – |
| CCn1c(SCC(=O)c2ccccc2)nc2ccccc2c1=O | active: 15.8 µM | – |
| Cc1ccc(NC(=O)Nc2ccccc2C#N)c(Cl)c1 | inconclusive [inhibitor, single point] | – |
| O=C(Cn1c(=O)sc2ccccc21)Nc1ccc(S(=O)(=O)N2CCCCC2)cc1 | inconclusive [inhibitor, single point] | – |
| COc1ccc(C(=O)NC2CCCCC2)cc1S(=O)(=O)N1CCCC1 | inactive | – |
| CCCCCSc1nnc(-c2cc(Br)ccc2N)c(=O)[nH]1 | inconclusive [inhibitor, single point] | – |
| CCOC(=O)/C(C#N)=C\c1ccc(OC)c(OC)c1 | inconclusive [inhibitor, single point] | – |
| CCOC(=O)c1c2ccc(OCC(=O)N/N=C/c3ccc(Cl)cc3)cc2n2ccccc12 | inactive | – |
| CSc1ccccc1NC(=S)Nc1ccc(S(N)(=O)=O)cc1 | inactive | – |
| CCn1cc(/C=N/O)c(C)n1 | inactive | – |
| Cc1ccc(N2C(=O)CC(SCC(=O)Nc3ccc(S(N)(=O)=O)cc3)C2=O)cc1 (stereo not given) | active: 14.1 µM | – |
| CCOc1ccc(N2C(=O)/C(=C/c3cc(OC)c(OC)c(OC)c3)N(CC(=O)OC)C2=S)cc1 | inconclusive [inhibitor, single point] | – |
| Clc1ccc(-c2c(C3=NCCCN3)nnn2-c2ccc(Cl)cc2)cc1 | inactive | – |
| Cc1cccc(NC(=O)c2nc[nH]c2C(=O)Nc2ccccc2[N+](=O)[O-])c1 | inactive | – |
